In one test the target is T1, His-NOSIP-MBP K78AK79A (UniProt Q9Y314).
T1 sequence: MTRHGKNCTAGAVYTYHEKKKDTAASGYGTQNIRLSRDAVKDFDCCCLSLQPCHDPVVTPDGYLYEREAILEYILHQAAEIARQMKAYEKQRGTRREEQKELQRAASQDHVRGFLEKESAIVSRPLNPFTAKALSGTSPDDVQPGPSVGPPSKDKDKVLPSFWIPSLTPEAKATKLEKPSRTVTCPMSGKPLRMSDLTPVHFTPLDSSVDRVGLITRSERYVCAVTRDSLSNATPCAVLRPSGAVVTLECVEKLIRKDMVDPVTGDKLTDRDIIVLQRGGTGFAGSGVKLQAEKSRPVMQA
Briefly: pull-down; 100 pmol His-NOSIP-MBP (WT or K78A/K79A) or MBP immobilised on amylose beads, 100 pmol purified His-tagged NTR, with or without 300 pmol RanQ69L(1-180)-GTP, 3 h, 4 °C, TPB; SDS-PAGE, Coomassie; both purified.

Chains of the proteins cited; added tags and fusions are not shown. Lines headed by an entry give the natural chain unless they say otherwise; changes in a name come on top. Residues count along the entry.
UniProt O14980: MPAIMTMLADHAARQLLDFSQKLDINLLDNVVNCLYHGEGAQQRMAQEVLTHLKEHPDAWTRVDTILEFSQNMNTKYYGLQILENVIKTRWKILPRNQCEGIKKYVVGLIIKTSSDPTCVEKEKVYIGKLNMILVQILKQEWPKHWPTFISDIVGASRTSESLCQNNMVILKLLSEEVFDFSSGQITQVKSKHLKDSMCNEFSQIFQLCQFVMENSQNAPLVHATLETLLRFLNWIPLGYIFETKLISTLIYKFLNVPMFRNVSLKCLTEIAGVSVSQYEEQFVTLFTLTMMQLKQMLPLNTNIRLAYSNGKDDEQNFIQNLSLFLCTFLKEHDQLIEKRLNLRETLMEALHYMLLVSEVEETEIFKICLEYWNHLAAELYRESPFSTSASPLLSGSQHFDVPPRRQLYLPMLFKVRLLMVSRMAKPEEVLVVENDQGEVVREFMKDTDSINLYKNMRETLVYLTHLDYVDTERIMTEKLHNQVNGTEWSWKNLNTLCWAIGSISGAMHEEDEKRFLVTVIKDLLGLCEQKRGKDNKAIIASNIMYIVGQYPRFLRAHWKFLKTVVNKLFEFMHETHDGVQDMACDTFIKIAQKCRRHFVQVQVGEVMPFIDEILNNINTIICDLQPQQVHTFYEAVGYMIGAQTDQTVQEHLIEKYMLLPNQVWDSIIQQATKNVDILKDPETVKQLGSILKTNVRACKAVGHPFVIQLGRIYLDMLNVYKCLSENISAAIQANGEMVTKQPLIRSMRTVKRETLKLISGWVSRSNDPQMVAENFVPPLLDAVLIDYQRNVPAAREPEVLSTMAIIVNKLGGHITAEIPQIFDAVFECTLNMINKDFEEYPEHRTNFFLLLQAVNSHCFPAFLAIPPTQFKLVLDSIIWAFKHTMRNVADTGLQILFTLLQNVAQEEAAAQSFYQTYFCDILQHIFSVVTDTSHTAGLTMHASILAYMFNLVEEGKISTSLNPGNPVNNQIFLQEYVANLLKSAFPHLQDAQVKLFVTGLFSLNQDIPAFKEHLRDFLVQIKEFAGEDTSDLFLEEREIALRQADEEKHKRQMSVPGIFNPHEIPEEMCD
UniProt Q92973: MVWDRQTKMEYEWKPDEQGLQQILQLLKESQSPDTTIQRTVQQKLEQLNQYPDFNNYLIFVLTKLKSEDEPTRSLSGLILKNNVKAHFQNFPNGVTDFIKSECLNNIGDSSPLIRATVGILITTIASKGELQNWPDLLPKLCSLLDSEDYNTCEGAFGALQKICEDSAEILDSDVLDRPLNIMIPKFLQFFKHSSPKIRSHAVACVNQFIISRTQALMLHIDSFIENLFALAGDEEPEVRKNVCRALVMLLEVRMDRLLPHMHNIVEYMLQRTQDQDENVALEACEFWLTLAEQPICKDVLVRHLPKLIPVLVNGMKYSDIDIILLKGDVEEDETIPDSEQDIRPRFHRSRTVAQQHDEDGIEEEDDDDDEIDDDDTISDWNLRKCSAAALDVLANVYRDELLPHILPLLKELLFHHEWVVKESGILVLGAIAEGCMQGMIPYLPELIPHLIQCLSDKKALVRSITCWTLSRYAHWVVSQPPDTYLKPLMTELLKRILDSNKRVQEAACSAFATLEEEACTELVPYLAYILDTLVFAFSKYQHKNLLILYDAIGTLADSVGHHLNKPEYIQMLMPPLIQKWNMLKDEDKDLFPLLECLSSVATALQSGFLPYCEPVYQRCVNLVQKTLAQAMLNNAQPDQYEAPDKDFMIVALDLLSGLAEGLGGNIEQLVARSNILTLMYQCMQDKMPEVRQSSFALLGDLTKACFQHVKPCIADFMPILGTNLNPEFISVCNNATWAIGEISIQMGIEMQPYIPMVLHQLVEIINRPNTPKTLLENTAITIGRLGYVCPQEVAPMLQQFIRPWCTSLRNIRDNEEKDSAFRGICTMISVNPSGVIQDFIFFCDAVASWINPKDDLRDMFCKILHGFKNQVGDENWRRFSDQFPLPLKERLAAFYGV
His-TNPO1 (transportin 1): residues 9-898 of Q92973
MBP-TNPO1 ΔN (aa 518-890): residues 526-898 of Q92973
UniProt Q14974: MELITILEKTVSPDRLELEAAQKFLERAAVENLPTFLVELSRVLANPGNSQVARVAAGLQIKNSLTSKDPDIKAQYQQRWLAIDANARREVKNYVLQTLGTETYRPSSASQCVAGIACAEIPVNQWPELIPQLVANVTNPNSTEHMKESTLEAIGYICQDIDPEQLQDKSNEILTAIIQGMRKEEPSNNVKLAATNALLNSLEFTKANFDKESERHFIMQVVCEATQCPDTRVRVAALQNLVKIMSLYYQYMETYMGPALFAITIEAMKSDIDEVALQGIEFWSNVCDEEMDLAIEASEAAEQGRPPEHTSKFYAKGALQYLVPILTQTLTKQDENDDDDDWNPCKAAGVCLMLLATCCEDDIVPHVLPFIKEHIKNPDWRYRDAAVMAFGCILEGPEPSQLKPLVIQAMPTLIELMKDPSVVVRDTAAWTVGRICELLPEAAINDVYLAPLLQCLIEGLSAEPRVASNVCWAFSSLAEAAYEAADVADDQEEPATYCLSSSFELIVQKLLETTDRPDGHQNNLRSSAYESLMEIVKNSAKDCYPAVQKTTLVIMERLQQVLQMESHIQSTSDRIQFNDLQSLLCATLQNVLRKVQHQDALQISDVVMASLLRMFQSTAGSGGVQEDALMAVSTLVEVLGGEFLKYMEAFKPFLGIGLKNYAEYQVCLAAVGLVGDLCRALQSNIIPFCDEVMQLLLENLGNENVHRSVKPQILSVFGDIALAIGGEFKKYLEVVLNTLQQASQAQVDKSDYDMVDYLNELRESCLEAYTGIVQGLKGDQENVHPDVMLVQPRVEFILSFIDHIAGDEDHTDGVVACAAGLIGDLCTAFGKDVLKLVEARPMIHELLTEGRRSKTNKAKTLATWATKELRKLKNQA

Test [1] has as its target T2, His-NOSIP-MBP (nitric oxide synthase interacting protein) (UniProt Q9Y314).
T2 sequence: T1 sequence with A78K, A79K
Briefly: pull-down; competition among NTRs: 100 pmol His-NOSIP-MBP immobilised on amylose beads, 100 pmol of one NTR and increasing amounts of the other; Coomassie; both purified.

In test [2] the target is T2, His-NOSIP-MBP (nitric oxide synthase interacting protein). Briefly: pull-down; 100 pmol His-NOSIP-MBP (WT or K78A/K79A) or MBP immobilised on amylose beads, 100 pmol purified His-tagged NTR, with or without 300 pmol RanQ69L(1-180)-GTP, 3 h, 4 °C, TPB; SDS-PAGE, Coomassie; both purified.
The target of test [3] is T3, GST-NOSIP (UniProt Q9Y314).
T3 sequence: T1 sequence with A78K, A79K
Briefly: pull-down; GST-M9 or GST-NOSIP immobilised on glutathione Sepharose beads, MBP-tagged TNPO1 FL, ΔN or ΔC, with or without RanQ69L(1-180)-GTP; Coomassie; both purified.

Test [4] addresses T2, His-NOSIP-MBP (nitric oxide synthase interacting protein). Description: pull-down; 600 pmol His-NOSIP-MBP or MBP immobilised on MBP-selector beads, 200 μl HeLa cytosol (14.3 mg/ml), with or without 2000 pmol RanQ69L(1-180)-GTP, 6 h, 4 °C, transport buffer (TPB); Western blot; only the target purified.
Test [5] concerns the target T3, GST-NOSIP. Description: pull-down; 100 pmol GST-IBB, GST-NOSIP or GST immobilised on glutathione Sepharose beads, 100 pmol His-S-tagged importin β FL, ΔN or ΔC; Western blot with anti-importin β; both purified.

Where a chain is given by its changes, count along the chain named. Results are given in words; binding and its absence hold for the method and conditions named. For some of these results: In cells and extracts the contact can be indirect. Some binding calls cover weakened binding; strength is not graded here. Where a sequence is shown, tags or fusion partners need not be part of it.

For the substance His-CRM1 (from UniProt O14980 1-1071), in the test with His-NOSIP-MBP K78AK79A, the binding entry is recorded as “no binding (tested: 100 pmol)”.

Regarding “His-TNPO1 (transportin 1) (from UniProt Q92973-2 1-890)”, the binding entry in test [1] and in test [2] was “binds” in each case. Turning to “MBP-TNPO1 ΔN (aa 518-890) (from UniProt Q92973-2 518-890) (domain or fragment)”, the binding result with GST-NOSIP [3] was “binds weakly”. “importin β (endogenous, HeLa cytosol) (from UniProt Q14974 1-876)”: the binding result in test [4] is reported as “binds”. Turning to “importin β ΔN (aa 304-876), His-S-tagged (from UniProt Q14974 304-876) (domain or fragment)”, the binding entry with GST-NOSIP [5] was “binds weakly”. Regarding “transportin 1 (endogenous, HeLa cytosol) (from UniProt Q92973 1-898)”, the binding result in test [4] is given as “binds”.

(Values after article PMC9974451.)
